# Source: the supplement of paper PMC7125110
# ± gives the standard error. Variants at the background level are over-represented here.
# B1: glmS ribozyme (parent)
# chain: AUAAAAGCGCCAGAACUACAGAAAUGUAGUUGACGAGGAGGAGGUUUAUCGAAUUUUCGGCGGAUGCCUCCAAA
# Key:
# Settings in all cases: with glucosamine-6-phosphate
# glucosamine-6-phosphate [1] = variants of: B1; test: self-cleavage kobs at 40 uM GlcN6P; higher = faster cleavage; RNA array
# Summary of the method: (§1)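 E. coli RNA polymerase transcribed barcoded ribozyme variants in situ on sequenced MiSeq chips, which were tracked via a hybridised Cy3 probe at 37 °C. Tiles were imaged over ~14 h after glucosamine-6-phosphate (40 μM to 10 mM) in HEPES/KCl/Mg(OAc)2 buffer was flowed in. Normalised per-tile medians were fit to one- or two-exponential decays for kobs, and kcat and KM came from weighted Michaelis–Menten fits.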
# glucosamine-6-phosphate [2] = variants of: B1; test: self-cleavage kobs at 160 uM GlcN6P; higher = faster cleavage; RNA array
# Summary of the method: as §1
# glucosamine-6-phosphate [3] = variants of: B1; test: self-cleavage kobs at 2500 uM GlcN6P; higher = faster cleavage; RNA array
# Summary of the method: as §1
# glucosamine-6-phosphate [4] = variants of: B1; test: self-cleavage kobs at 10000 uM GlcN6P; higher = faster cleavage; RNA array
# Summary of the method: as §1
# glucosamine-6-phosphate [5] = variants of: B1; test: self-cleavage kobs at 640 uM GlcN6P; higher = faster cleavage; RNA array
# Summary of the method: as §1
Variant,self-cleavage kobs at 40 uM GlcN6P (glucosamine-6-phosphate [1]),self-cleavage kobs at 160 uM GlcN6P (glucosamine-6-phosphate [2]),self-cleavage kobs at 2500 uM GlcN6P (glucosamine-6-phosphate [3]),self-cleavage kobs at 10000 uM GlcN6P (glucosamine-6-phosphate [4]),self-cleavage kobs at 640 uM GlcN6P (glucosamine-6-phosphate [5])
A36U A39C,< 1e-05 s⁻¹,–,–,–,–
G41A G44A,< 1e-05 s⁻¹,< 1e-05 s⁻¹,< 1e-05 s⁻¹,< 1e-05 s⁻¹,–
G43A U56G,< 1e-05 s⁻¹,–,–,3.58e-05 ± 9e-06 s⁻¹,–
G44A U69G,< 1e-05 s⁻¹,–,–,–,–
G40C U57A G62A,< 1e-05 s⁻¹,–,–,< 1e-05 s⁻¹,–
G40U U45G A48U G62U,< 1e-05 s⁻¹,–,–,< 1e-05 s⁻¹,–
G37U A39G C61A U69A,< 1e-05 s⁻¹,–,–,< 1e-05 s⁻¹,–
G41A U69A,< 1e-05 s⁻¹,–,–,–,< 1e-05 s⁻¹
A36G A53G,< 1e-05 s⁻¹,< 1e-05 s⁻¹,–,–,< 1e-05 s⁻¹
G44U A53C C68U,< 1e-05 s⁻¹,–,–,–,–
A36C U49A,< 1e-05 s⁻¹,–,–,< 1e-05 s⁻¹,< 1e-05 s⁻¹
A39C U49C U55G C71U,< 1e-05 s⁻¹,–,< 1e-05 s⁻¹,< 1e-05 s⁻¹,–
G44A A64G,< 1e-05 s⁻¹,–,–,–,–
G40U C61A G63C,< 1e-05 s⁻¹,< 1e-05 s⁻¹,< 1e-05 s⁻¹,–,–
A36U G41U C70G,< 1e-05 s⁻¹,–,–,–,–
G41A G43U C68U,< 1e-05 s⁻¹,–,–,–,–
G40A C58U C70A,< 1e-05 s⁻¹,–,–,–,–
G41A G59C,< 1e-05 s⁻¹,< 1e-05 s⁻¹,< 1e-05 s⁻¹,< 1e-05 s⁻¹,< 1e-05 s⁻¹
G40C G43A,< 1e-05 s⁻¹,–,–,< 1e-05 s⁻¹,–
A36U U47A,< 1e-05 s⁻¹,< 1e-05 s⁻¹,–,< 1e-05 s⁻¹,< 1e-05 s⁻¹
A42G C70A,4.72e-05 ± 8.8e-06 s⁻¹,6.35e-05 ± 1.1e-05 s⁻¹,0.000325 ± 3.7e-05 s⁻¹,–,0.000154 ± 1.6e-05 s⁻¹
A36G U57A,< 1e-05 s⁻¹,< 1e-05 s⁻¹,< 1e-05 s⁻¹,< 1e-05 s⁻¹,< 1e-05 s⁻¹
G40A G62U,< 1e-05 s⁻¹,< 1e-05 s⁻¹,–,< 1e-05 s⁻¹,< 1e-05 s⁻¹
G38C U47C G59C G66U,< 1e-05 s⁻¹,–,< 1e-05 s⁻¹,< 1e-05 s⁻¹,–

Variant,self-cleavage kobs at 40 uM GlcN6P (glucosamine-6-phosphate [1]),self-cleavage kobs at 160 uM GlcN6P (glucosamine-6-phosphate [2]),self-cleavage kobs at 2500 uM GlcN6P (glucosamine-6-phosphate [3]),self-cleavage kobs at 10000 uM GlcN6P (glucosamine-6-phosphate [4]),self-cleavage kobs at 640 uM GlcN6P (glucosamine-6-phosphate [5])
G43U C71U,< 1e-05 s⁻¹,< 1e-05 s⁻¹,–,–,–
G37C G59U,< 1e-05 s⁻¹,–,–,< 1e-05 s⁻¹,–
G38U G59A A64U,< 1e-05 s⁻¹,< 1e-05 s⁻¹,< 1e-05 s⁻¹,< 1e-05 s⁻¹,–
G35U U54C U55A G59C,< 1e-05 s⁻¹,–,–,< 1e-05 s⁻¹,–
G38A G63C,< 1e-05 s⁻¹,< 1e-05 s⁻¹,–,< 1e-05 s⁻¹,–
G37U A53G,< 1e-05 s⁻¹,–,–,–,–
G41C C68G,< 1e-05 s⁻¹,< 1e-05 s⁻¹,–,–,< 1e-05 s⁻¹
G41C C68A,< 1e-05 s⁻¹,< 1e-05 s⁻¹,< 1e-05 s⁻¹,< 1e-05 s⁻¹,< 1e-05 s⁻¹
A39U G41U C67G,< 1e-05 s⁻¹,–,–,–,–
G40C G44C U55A C61A,< 1e-05 s⁻¹,< 1e-05 s⁻¹,< 1e-05 s⁻¹,–,–
A36G U45A A53C U57C,< 1e-05 s⁻¹,–,< 1e-05 s⁻¹,< 1e-05 s⁻¹,< 1e-05 s⁻¹
G41U A48G,< 1e-05 s⁻¹,< 1e-05 s⁻¹,–,–,< 1e-05 s⁻¹
G41U A48C,< 1e-05 s⁻¹,< 1e-05 s⁻¹,–,–,< 1e-05 s⁻¹
G37C A53C,< 1e-05 s⁻¹,–,–,–,–
G37C A48C,< 1e-05 s⁻¹,–,–,–,–
G37C A48G,< 1e-05 s⁻¹,< 1e-05 s⁻¹,–,–,< 1e-05 s⁻¹
A36C U65G,< 1e-05 s⁻¹,< 1e-05 s⁻¹,–,< 1e-05 s⁻¹,< 1e-05 s⁻¹
G40U U69A,< 1e-05 s⁻¹,–,–,–,–
A39G U47G,0.000644 ± 0.0001 s⁻¹,–,0.0155 ± 0.0035 s⁻¹,–,0.00207 ± 0.00049 s⁻¹
G41U G62C,< 1e-05 s⁻¹,< 1e-05 s⁻¹,< 1e-05 s⁻¹,< 1e-05 s⁻¹,< 1e-05 s⁻¹
A36G U46C,< 1e-05 s⁻¹,–,–,–,–
G43A G59A,< 1e-05 s⁻¹,< 1e-05 s⁻¹,< 1e-05 s⁻¹,< 1e-05 s⁻¹,< 1e-05 s⁻¹
G43A C61G,< 1e-05 s⁻¹,< 1e-05 s⁻¹,< 1e-05 s⁻¹,< 1e-05 s⁻¹,< 1e-05 s⁻¹
A36G A48G C70U,< 1e-05 s⁻¹,–,–,< 1e-05 s⁻¹,< 1e-05 s⁻¹

Variant,self-cleavage kobs at 40 uM GlcN6P (glucosamine-6-phosphate [1]),self-cleavage kobs at 160 uM GlcN6P (glucosamine-6-phosphate [2]),self-cleavage kobs at 2500 uM GlcN6P (glucosamine-6-phosphate [3]),self-cleavage kobs at 10000 uM GlcN6P (glucosamine-6-phosphate [4]),self-cleavage kobs at 640 uM GlcN6P (glucosamine-6-phosphate [5])
G40A A64U,< 1e-05 s⁻¹,< 1e-05 s⁻¹,–,–,< 1e-05 s⁻¹
G41A A53G U55C C68A,< 1e-05 s⁻¹,–,–,–,–
G41U G59C,< 1e-05 s⁻¹,< 1e-05 s⁻¹,< 1e-05 s⁻¹,< 1e-05 s⁻¹,< 1e-05 s⁻¹
G40A C58G,< 1e-05 s⁻¹,< 1e-05 s⁻¹,–,–,< 1e-05 s⁻¹
G44A C70A,< 1e-05 s⁻¹,< 1e-05 s⁻¹,< 1e-05 s⁻¹,< 1e-05 s⁻¹,–
G44A C68U,< 1e-05 s⁻¹,–,–,–,–
G41U C70A,0.00288 ± 0.00022 s⁻¹,0.00721 ± 0.0009 s⁻¹,–,–,0.0189 ± 0.0026 s⁻¹
G43U G59C C67G,< 1e-05 s⁻¹,–,< 1e-05 s⁻¹,–,–
A39C G40C C70G,< 1e-05 s⁻¹,–,–,< 1e-05 s⁻¹,< 1e-05 s⁻¹
G43C A48C,< 1e-05 s⁻¹,< 1e-05 s⁻¹,< 1e-05 s⁻¹,< 1e-05 s⁻¹,< 1e-05 s⁻¹
A36U U69A,5.11e-05 ± 1.6e-05 s⁻¹,–,7.35e-05 ± 2.7e-05 s⁻¹,–,–
G37A G43U U55G,< 1e-05 s⁻¹,–,–,–,–
A39U G59C,< 1e-05 s⁻¹,< 1e-05 s⁻¹,< 1e-05 s⁻¹,< 1e-05 s⁻¹,< 1e-05 s⁻¹
G37U G38A A42C,< 1e-05 s⁻¹,–,< 1e-05 s⁻¹,< 1e-05 s⁻¹,< 1e-05 s⁻¹
G43C A52C,< 1e-05 s⁻¹,–,–,–,< 1e-05 s⁻¹
G38A A42U C70A,< 1e-05 s⁻¹,–,–,–,–
G37A A48U U56C G66U,< 1e-05 s⁻¹,–,–,< 1e-05 s⁻¹,–
G44C C61A,< 1e-05 s⁻¹,–,< 1e-05 s⁻¹,< 1e-05 s⁻¹,< 1e-05 s⁻¹
G37U U49G G51C U65G,< 1e-05 s⁻¹,–,–,–,–
G38A G51U C68G,< 1e-05 s⁻¹,–,–,–,–
G40A U47C G62A A64C C70U,< 1e-05 s⁻¹,–,< 1e-05 s⁻¹,< 1e-05 s⁻¹,–
A42G U49C,< 1e-05 s⁻¹,< 1e-05 s⁻¹,< 1e-05 s⁻¹,< 1e-05 s⁻¹,< 1e-05 s⁻¹
G38A U49A,< 1e-05 s⁻¹,–,–,< 1e-05 s⁻¹,–
G40C G60U,< 1e-05 s⁻¹,< 1e-05 s⁻¹,–,< 1e-05 s⁻¹,< 1e-05 s⁻¹

Variant,self-cleavage kobs at 40 uM GlcN6P (glucosamine-6-phosphate [1]),self-cleavage kobs at 160 uM GlcN6P (glucosamine-6-phosphate [2]),self-cleavage kobs at 2500 uM GlcN6P (glucosamine-6-phosphate [3]),self-cleavage kobs at 10000 uM GlcN6P (glucosamine-6-phosphate [4]),self-cleavage kobs at 640 uM GlcN6P (glucosamine-6-phosphate [5])
G37C G63C,< 1e-05 s⁻¹,–,–,< 1e-05 s⁻¹,< 1e-05 s⁻¹
G44A A48U,< 1e-05 s⁻¹,< 1e-05 s⁻¹,–,–,< 1e-05 s⁻¹
G40U U56G G62C C67G,< 1e-05 s⁻¹,–,–,–,–
A42C A48G,< 1e-05 s⁻¹,< 1e-05 s⁻¹,< 1e-05 s⁻¹,< 1e-05 s⁻¹,< 1e-05 s⁻¹
G41U C50A G59A,< 1e-05 s⁻¹,–,–,< 1e-05 s⁻¹,–
G38C G41U,< 1e-05 s⁻¹,< 1e-05 s⁻¹,< 1e-05 s⁻¹,< 1e-05 s⁻¹,< 1e-05 s⁻¹
G38U A48C C71G,< 1e-05 s⁻¹,–,–,< 1e-05 s⁻¹,–
G37U G51A,< 1e-05 s⁻¹,< 1e-05 s⁻¹,< 1e-05 s⁻¹,< 1e-05 s⁻¹,–
A42C G44A C68U,< 1e-05 s⁻¹,–,–,< 1e-05 s⁻¹,–
A39G C50G C58A,0.000142 ± 4.6e-05 s⁻¹,–,–,–,–
G41A C50A G51U,< 1e-05 s⁻¹,< 1e-05 s⁻¹,–,–,–
A36C G41U G59C,< 1e-05 s⁻¹,–,< 1e-05 s⁻¹,< 1e-05 s⁻¹,–
G37U A39U,< 1e-05 s⁻¹,–,–,–,< 1e-05 s⁻¹
G37U U65A,< 1e-05 s⁻¹,–,–,–,< 1e-05 s⁻¹
G37U U65C,< 1e-05 s⁻¹,–,–,< 1e-05 s⁻¹,–
G37U U65G,< 1e-05 s⁻¹,–,–,–,–
G43C G62A,< 1e-05 s⁻¹,< 1e-05 s⁻¹,< 1e-05 s⁻¹,< 1e-05 s⁻¹,< 1e-05 s⁻¹
G41U G62A G63U,< 1e-05 s⁻¹,–,–,< 1e-05 s⁻¹,–
G41U C61U,< 1e-05 s⁻¹,< 1e-05 s⁻¹,< 1e-05 s⁻¹,< 1e-05 s⁻¹,< 1e-05 s⁻¹
G40U G62A,< 1e-05 s⁻¹,< 1e-05 s⁻¹,< 1e-05 s⁻¹,< 1e-05 s⁻¹,< 1e-05 s⁻¹
G41U C58G,< 1e-05 s⁻¹,< 1e-05 s⁻¹,< 1e-05 s⁻¹,< 1e-05 s⁻¹,< 1e-05 s⁻¹
G40A C61A,< 1e-05 s⁻¹,< 1e-05 s⁻¹,–,–,< 1e-05 s⁻¹
